For assay [1], the target named is T1, Caf1-Myc (S. cerevisiae) (UniProt P39008).
T1 sequence: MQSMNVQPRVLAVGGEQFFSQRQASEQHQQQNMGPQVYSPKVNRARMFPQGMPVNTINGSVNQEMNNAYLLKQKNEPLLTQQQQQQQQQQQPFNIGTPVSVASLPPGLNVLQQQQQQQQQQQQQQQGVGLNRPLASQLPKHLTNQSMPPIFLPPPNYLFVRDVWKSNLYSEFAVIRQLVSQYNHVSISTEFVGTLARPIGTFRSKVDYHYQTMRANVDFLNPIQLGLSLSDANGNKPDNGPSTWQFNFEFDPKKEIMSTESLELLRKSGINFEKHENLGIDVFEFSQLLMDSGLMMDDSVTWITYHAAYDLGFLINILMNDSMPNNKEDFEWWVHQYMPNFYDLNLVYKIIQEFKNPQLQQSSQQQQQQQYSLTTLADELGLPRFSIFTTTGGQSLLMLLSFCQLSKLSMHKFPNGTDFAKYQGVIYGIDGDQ
The assay can be described thus: co-IP; data not shown: interaction of Mlp1 and Caf1 after RNase treatment; RNase experiments used extracts of cells expressing Caf1-Myc.

The chains behind the UniProt entries cited, without tags or fusion partners.
UniProt P25655: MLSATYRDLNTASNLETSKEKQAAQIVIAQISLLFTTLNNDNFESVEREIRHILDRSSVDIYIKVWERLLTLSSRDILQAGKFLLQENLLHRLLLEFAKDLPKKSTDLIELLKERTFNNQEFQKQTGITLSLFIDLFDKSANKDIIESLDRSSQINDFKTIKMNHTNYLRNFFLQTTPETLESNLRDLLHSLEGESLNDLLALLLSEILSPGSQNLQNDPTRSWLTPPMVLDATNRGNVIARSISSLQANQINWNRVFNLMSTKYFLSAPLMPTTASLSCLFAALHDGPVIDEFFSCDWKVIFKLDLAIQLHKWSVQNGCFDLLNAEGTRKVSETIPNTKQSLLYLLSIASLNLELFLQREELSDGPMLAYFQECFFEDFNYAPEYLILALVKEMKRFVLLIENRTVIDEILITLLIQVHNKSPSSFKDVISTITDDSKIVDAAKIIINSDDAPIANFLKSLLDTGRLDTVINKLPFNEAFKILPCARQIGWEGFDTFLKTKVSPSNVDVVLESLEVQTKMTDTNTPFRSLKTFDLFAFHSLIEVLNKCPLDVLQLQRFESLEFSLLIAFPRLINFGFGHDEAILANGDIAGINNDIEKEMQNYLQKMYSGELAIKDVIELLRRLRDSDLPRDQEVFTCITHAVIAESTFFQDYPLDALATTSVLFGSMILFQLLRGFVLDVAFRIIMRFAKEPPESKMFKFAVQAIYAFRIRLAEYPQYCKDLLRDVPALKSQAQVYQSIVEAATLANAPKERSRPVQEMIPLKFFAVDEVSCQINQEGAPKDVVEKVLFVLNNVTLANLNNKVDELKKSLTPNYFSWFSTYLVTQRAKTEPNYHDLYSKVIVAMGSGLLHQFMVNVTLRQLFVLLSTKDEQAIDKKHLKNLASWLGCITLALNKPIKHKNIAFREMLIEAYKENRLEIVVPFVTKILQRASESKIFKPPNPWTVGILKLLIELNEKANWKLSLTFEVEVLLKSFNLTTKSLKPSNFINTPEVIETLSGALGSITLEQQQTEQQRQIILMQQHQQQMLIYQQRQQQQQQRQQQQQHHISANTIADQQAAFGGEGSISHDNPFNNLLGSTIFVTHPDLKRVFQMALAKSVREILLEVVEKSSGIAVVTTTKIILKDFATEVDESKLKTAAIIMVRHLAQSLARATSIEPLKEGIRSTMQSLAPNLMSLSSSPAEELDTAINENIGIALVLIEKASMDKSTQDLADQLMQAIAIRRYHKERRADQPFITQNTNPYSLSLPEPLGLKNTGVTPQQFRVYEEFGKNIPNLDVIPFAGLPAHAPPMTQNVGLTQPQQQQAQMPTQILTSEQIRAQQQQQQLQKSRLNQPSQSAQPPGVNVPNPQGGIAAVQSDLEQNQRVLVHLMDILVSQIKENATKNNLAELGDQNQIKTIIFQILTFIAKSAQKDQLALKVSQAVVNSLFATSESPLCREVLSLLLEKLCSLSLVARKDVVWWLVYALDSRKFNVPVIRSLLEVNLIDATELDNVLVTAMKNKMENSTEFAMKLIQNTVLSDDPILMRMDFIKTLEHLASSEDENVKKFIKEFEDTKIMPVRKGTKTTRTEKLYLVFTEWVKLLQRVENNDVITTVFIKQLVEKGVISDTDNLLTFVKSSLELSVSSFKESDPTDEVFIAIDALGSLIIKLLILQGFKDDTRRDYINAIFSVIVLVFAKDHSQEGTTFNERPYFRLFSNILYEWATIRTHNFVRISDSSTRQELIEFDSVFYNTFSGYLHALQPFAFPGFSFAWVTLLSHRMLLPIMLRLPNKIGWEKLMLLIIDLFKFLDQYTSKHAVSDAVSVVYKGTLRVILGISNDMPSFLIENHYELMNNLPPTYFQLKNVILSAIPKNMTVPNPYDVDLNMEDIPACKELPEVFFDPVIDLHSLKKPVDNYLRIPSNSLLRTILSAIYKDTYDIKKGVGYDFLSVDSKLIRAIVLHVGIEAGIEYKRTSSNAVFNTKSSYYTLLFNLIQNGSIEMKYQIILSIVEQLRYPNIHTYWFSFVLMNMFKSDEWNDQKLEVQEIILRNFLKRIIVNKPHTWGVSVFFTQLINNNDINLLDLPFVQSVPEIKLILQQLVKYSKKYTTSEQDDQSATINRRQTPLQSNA
UniProt Q02455: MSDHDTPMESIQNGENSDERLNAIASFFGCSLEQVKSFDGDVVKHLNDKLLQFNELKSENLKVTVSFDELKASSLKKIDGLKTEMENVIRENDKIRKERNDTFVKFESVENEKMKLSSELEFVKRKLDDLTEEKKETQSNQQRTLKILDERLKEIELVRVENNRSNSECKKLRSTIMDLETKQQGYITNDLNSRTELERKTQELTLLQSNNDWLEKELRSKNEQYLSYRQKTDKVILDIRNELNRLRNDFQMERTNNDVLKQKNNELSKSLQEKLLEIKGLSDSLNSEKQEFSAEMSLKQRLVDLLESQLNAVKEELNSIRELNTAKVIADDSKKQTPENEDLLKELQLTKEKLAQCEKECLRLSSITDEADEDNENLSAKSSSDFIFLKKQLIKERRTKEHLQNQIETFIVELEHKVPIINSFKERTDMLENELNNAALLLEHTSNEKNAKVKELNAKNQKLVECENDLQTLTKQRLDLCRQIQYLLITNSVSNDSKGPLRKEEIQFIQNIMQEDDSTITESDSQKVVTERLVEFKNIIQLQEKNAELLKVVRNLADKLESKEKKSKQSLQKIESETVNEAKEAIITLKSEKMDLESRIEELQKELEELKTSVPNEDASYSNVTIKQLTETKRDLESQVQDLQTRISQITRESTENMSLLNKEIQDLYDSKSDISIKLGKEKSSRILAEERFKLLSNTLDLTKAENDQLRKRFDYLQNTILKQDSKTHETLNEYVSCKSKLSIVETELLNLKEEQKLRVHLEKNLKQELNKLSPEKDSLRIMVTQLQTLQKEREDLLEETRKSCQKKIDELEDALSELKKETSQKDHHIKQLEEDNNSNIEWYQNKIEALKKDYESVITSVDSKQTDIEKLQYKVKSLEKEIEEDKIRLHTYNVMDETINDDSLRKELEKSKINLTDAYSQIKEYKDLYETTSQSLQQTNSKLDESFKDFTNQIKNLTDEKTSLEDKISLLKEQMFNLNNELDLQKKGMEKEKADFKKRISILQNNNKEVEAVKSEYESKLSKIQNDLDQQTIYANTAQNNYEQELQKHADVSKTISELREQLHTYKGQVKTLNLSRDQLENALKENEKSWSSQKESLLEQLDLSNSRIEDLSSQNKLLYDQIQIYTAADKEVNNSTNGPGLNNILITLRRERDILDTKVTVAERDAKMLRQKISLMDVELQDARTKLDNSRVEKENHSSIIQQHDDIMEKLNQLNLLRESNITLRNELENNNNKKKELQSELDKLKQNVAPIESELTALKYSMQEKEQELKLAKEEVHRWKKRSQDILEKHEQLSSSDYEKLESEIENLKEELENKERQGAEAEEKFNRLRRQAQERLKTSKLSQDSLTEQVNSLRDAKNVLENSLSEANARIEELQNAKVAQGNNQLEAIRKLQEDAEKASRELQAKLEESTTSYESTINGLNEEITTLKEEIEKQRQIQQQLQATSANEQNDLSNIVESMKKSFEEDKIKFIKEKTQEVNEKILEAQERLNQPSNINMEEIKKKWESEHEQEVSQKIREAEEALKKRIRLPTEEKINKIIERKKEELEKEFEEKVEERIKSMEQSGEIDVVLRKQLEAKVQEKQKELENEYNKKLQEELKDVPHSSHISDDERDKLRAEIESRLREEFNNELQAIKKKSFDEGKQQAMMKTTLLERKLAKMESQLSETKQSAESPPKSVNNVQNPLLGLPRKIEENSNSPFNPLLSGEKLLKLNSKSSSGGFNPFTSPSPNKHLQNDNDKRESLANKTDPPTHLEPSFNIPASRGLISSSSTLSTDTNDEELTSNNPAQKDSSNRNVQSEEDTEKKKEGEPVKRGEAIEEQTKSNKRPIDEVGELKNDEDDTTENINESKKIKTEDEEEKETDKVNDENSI

Assay [2] has as its target T1, Caf1-Myc (S. cerevisiae). The assay can be described thus: co-IP; data not shown: α-Myc immunoprecipitation of Caf1-Myc after treating the lysate with RNase A; Nab2 detected.
Another assay concerns the target T2, Not2-Myc (S. cerevisiae) (UniProt P06100).
T2 sequence: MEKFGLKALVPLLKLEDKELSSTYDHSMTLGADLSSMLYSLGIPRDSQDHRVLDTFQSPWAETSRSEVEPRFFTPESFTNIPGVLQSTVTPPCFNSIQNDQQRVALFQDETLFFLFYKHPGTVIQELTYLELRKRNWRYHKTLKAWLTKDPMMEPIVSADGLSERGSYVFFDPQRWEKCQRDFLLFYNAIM
Kind of assay: co-IP; α-Myc immunoprecipitation of the Myc-tagged Ccr4-Not subunit from 500 µg yeast whole-cell extract (10 mM Tris pH 8.0, 150 mM NaCl, 0.1% Nonidet P-40, 10% glycerol, 1 mM DTT), 4°C; immunoblot with α-Nab2 or α-Hrp1; Caf1-Hrp1 also after RNase A (0.105 U/µL, 10 min at 37°C) and in hmt1Δ cells carrying the HMT1 plasmid.

In another assay the target is T3, Ccr4-Myc (S. cerevisiae) (UniProt P31384).
T3 sequence: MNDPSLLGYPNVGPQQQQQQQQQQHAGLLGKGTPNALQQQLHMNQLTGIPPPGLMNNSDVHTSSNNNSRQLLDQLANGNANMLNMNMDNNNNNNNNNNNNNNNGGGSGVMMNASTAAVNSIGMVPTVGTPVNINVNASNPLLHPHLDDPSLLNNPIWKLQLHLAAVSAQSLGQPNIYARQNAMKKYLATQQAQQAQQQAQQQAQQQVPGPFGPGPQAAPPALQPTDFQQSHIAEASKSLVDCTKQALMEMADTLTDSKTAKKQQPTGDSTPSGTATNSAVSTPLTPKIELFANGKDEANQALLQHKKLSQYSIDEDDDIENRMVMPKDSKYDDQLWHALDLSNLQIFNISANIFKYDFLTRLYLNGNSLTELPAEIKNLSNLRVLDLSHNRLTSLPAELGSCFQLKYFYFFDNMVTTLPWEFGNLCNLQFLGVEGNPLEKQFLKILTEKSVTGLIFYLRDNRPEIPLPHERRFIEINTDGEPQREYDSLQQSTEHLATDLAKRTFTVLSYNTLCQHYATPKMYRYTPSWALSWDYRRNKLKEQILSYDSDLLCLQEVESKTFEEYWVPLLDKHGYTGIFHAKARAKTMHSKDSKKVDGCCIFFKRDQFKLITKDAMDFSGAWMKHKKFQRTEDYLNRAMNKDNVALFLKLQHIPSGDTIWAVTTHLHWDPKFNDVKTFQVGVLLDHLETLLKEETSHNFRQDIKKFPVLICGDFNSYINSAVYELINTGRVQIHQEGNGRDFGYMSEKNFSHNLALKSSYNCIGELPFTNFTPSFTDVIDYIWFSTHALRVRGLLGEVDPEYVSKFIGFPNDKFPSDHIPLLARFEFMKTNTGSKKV
The description is as above.

A further assay concerns the target T4, Not5-Myc (S. cerevisiae) (UniProt Q12514).
T4 sequence: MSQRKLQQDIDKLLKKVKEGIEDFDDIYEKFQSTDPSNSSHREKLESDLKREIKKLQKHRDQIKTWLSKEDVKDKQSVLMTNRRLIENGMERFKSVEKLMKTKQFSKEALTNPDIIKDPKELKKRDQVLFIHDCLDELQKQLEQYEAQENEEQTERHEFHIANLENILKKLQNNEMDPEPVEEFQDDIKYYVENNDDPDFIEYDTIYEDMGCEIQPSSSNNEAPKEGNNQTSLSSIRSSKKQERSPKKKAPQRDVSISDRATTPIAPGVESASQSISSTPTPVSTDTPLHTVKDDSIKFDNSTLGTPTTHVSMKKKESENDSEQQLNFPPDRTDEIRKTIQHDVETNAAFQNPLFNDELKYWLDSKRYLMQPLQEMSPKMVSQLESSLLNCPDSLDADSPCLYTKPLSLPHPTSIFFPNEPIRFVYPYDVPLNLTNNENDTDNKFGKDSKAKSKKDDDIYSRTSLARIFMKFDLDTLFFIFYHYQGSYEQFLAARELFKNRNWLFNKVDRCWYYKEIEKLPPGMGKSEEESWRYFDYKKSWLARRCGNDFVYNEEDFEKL
The description is as above.

The target of assay [3] is T1, Caf1-Myc (S. cerevisiae). Described as above.
Assay [4] has as its target Not1-Myc (NOT1-MYC13) (S. cerevisiae) (UniProt P25655). Described as above.
In assay [5] the target is T5, Not4 (Myc-tagged) (S. cerevisiae) (UniProt P34909).
T5 sequence: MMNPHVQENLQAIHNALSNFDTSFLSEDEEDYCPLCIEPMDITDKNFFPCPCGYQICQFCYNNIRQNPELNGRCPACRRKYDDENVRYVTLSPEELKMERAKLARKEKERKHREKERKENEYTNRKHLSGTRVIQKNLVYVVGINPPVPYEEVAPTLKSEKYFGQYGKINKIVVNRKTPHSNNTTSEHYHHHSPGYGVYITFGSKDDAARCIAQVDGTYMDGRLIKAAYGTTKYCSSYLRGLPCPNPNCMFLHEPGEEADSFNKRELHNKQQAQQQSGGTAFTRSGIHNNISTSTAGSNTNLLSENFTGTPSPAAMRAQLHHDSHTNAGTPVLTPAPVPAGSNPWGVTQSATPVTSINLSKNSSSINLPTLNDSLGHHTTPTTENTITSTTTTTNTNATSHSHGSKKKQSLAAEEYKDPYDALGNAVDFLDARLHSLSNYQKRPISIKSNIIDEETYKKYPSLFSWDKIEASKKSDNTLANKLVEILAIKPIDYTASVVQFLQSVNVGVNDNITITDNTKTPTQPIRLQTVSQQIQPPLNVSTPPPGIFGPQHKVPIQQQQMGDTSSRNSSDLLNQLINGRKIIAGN
The description is as above.

These are yes or no findings as the source states them, for the method shown. Binding seen in cells or lysates may run through a third protein. Some entries that bind do so weakly or less than the wild type. For part of these data: Tags and fused reporters may be left off the sequences shown.

With Mlp1 (from UniProt Q02455 1-1875), the binding result with Caf1-Myc (S. cerevisiae) [1] is listed as “binds”.

B1: Nab2 (protein, UniProt P32505 1-525)
chain: MSQEQYTENLKVIVAEKLAGIPNFNEDIKYVAEYIVLLIVNGGTVESVVDELASLFDSVSRDTLANVVQTAFFALEALQQGESAENIVSKIRMMNAQSLGQSDIAQQQQQQQQQQQPDIAQQQPQQQPQQQPQQQPQQQPQQQPQQQPQQQPQQQPQLQPLQPQLGTQNAMQTDAPATPSPISAFSGVVNAAAPPQFAPVDNSQRFTQRGGGAVGKNRRGGRGGNRGGRNNNSTRFNPLAKALGMAGESNMNFTPTKKEGRCRLFPHCPLGRSCPHAHPTKVCNEYPNCPKPPGTCEFLHPNEDEELMKEMERTREEFQKRKADLLAAKRKPVQTGIVLCKFGALCSNPSCPFGHPTPANEDAKVIDLMWCDKNLTCDNPECRKAHSSLSKIKEVKPISQKKAAPPPVEKSLEQCKFGTHCTNKRCKYRHARSHIMCREGANCTRIDCLFGHPINEDCRFGVNCKNIYCLFRHPPGRVLPEKKGAAPNSNVPTNERPFALPENAIIENAPPQTSFTHQEQDTEMN
modifications: arginine methylation by Hmt1 (sites not given)
Consider B1, for which the binding entry is given as “binds” with Caf1-Myc (S. cerevisiae) [2]; “no binding” in the assay with Not2-Myc (S. cerevisiae); “binds” with Ccr4-Myc (S. cerevisiae); “binds” in the assay with Not5-Myc (S. cerevisiae); “binds” with Caf1-Myc (S. cerevisiae) [3]; “no binding” in assay [4].

B2: Hrp1 (protein, UniProt Q99383 1-534)
chain: MSSDEEDFNDIYGDDKPTTTEEVKKEEEQNKAGSGTSQLDQLAALQALSSSLNKLNNPNSNNSSSNNSNQDTSSSKQDGTANDKEGSNEDTKNEKKQESATSANANANASSAGPSGLPWEQLQQTMSQFQQPSSQSPPQQQVTQTKEERSKADLSKESCKMFIGGLNWDTTEDNLREYFGKYGTVTDLKIMKDPATGRSRGFGFLSFEKPSSVDEVVKTQHILDGKVIDPKRAIPRDEQDKTGKIFVGGIGPDVRPKEFEEFFSQWGTIIDAQLMLDKDTGQSRGFGFVTYDSADAVDRVCQNKFIDFKDRKIEIKRAEPRHMQQKSSNNGGNNGGNNMNRRGGNFGNQGDFNQMYQNPMMGGYNPMMNPQAMTDYYQKMQEYYQQMQKQTGMDYTQMYQQQMQQMAMMMPGFAMPPNAMTLNQPQQDSNATQGSPAPSDSDNNKSNDVQTIGNTSNTDSGSPPLNLPNGPKGPSQYNDDHNSGYGYNRDRGDRDRNDRDRDYNHRSGGNHRRNGRGGRGGYNRRNNGYHPYNR
modifications: arginine methylation by Hmt1 (sites not given)
With B2, the binding entry (in the assay with Not2-Myc (S. cerevisiae); in the assay with Ccr4-Myc (S. cerevisiae); with Not5-Myc (S. cerevisiae); in assay [5]; in assay [4]) was “binds” throughout.

For the origin of these results see paper PMC3065485.
